Among the data in the supplement of paper PMC4604168 (melanoma cell lines) are cell count values, retold here.

This is one part of the list. Single values are uncertain, as repeats are few or missing.
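Note: cells treated in 1,536-well plates, then fixed and DAPI-stained, with nuclei counted from automated high-throughput microscope images.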

This assay deals with SkMel28. Put plainly: cell count relative to DMSO control; melanoma cells; higher = more viable cells. The note with it: library dose: standard library concentration; 72 h.
In the case of `Cc1cc(Nc2cc(N3CCN(C)CC3)nc(Sc3ccc(NC(=O)C4CC4)cc3)n2)n[nH]1` [Tozasertib] + C[C@]1(c2nc3c(C(N)=O)cccc3[nH]2)CCCN1 [Veliparib] (first compound 0.03 µM, partner dose 7 µM), the cell count came out at 72%.
The result for `N#CC[C@H](C1CCCC1)n1cc(-c2ncnc3[nH]ccc23)cn1` [ruxolitinib] + Cn1cncc1[C@@](N)(c1ccc(Cl)cc1)c1ccc2c(c1)c(-c1cccc(Cl)c1)cc(=O)n2C [tipifarnib] (first compound 5 µM, partner dose 0.05 µM) reads 88.5%; that for `CC[C@]1(O)C[C@H]2CN(CCc3c([nH]c4ccccc34)[C@@](C(=O)OC)(c3cc4c(cc3OC)N(C=O)[C@H]3[C@@](O)(C(=O)OC)[C@H](OC(C)=O)[C@]5(CC)C=CCN6CC[C@]43[C@@H]65)C2)C1` [vincristine] + Cc1cc(Nc2cc(N3CCN(C)CC3)nc(/C=C/c3ccccc3)n2)n[nH]1 [ENMD2076] (first compound 0.0005 µM, partner dose 0.2 µM), 42.9%.
The result for `Cc1cc(Nc2cc(N3CCN(C)CC3)nc(Sc3ccc(NC(=O)C4CC4)cc3)n2)n[nH]1` [Tozasertib] + CC(C)CCN1c2nc(Nc3cc(F)c(O)c(F)c3)ncc2N(C)C(=O)C1C [BID1870] (first compound 0.03 µM, partner dose 1 µM) reads 48%.
To `CC[C@]1(O)C[C@H]2CN(CCc3c([nH]c4ccccc34)[C@@](C(=O)OC)(c3cc4c(cc3OC)N(C=O)[C@H]3[C@@](O)(C(=O)OC)[C@H](OC(C)=O)[C@]5(CC)C=CCN6CC[C@]43[C@@H]65)C2)C1` [vincristine] + CN(NC(=O)CC(=O)NN(C)C(=S)c1ccccc1)C(=S)c1ccccc1 [STA4783] (first compound 0.0005 µM, partner dose 0.03 µM) belongs 25.1%.
